Out of some 350,000 compounds screened, about 31,000 (8.9%) were called active. The inconclusive results got no clear call from the source; some entries with a clear call stand among them for comparison. Calls come from the whole dose curve; as a rule, active = well fitted inhibition curve with a large enough effect; inconclusive = small, poorly fitted or top-dose-only effect; inactive = no such curve, though single readings can be large or run the other way. Where the call is inconclusive, the potency comes from a doubtful curve fit.
target: Histone-lysine N-methyltransferase EHMT2 (Homo sapiens) (UniProt Q96KQ7); assay: qHTS Assay for Inhibitors of Histone Lysine Methyltransferase G9a; details: G9a H3K9 monomethylation, AlphaScreen, 2 h; activity, negative = inhibition: at 59 µM (top of the series) unless noted; note: nearly all actives have a fitted effect of over 75% in size
Chain of UniProt Q96KQ7 (Q96KQ7 whole entry, looked up): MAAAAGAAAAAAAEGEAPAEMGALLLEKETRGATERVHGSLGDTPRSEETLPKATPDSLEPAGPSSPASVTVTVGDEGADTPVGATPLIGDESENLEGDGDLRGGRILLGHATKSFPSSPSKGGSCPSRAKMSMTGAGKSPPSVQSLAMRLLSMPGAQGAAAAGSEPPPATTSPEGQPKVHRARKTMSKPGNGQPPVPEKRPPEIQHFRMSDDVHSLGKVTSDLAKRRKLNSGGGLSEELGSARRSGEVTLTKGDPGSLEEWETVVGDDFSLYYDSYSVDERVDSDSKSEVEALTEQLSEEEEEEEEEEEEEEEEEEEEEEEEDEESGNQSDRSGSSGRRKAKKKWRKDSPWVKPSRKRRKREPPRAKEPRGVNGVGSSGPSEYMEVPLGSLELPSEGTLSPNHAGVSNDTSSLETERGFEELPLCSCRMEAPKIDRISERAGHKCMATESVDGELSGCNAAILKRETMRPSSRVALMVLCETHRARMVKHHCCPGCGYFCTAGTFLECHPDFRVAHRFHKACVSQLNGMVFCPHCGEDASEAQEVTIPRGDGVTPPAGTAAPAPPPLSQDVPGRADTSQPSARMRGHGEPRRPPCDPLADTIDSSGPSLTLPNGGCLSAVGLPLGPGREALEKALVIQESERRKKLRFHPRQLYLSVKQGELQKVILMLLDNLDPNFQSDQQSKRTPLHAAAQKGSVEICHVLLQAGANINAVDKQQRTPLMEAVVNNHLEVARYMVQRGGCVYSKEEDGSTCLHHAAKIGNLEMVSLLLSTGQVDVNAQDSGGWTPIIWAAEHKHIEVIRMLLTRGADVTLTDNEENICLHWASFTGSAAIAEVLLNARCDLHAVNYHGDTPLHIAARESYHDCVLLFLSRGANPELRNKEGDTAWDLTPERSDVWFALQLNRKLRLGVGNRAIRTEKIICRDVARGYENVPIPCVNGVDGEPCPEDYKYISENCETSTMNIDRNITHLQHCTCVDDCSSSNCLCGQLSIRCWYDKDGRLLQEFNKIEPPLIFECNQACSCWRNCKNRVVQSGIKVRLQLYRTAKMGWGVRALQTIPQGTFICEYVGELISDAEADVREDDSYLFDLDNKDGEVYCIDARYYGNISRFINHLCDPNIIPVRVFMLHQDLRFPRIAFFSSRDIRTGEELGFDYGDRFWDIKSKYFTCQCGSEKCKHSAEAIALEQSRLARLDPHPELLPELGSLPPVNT
Method in brief: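 Chemiluminescent proximity detection of H3K9 monomethylation, read after 10 min bead incubation in the dark. Reaction: 20 nM G9a, 500 nM biotin-H3K9 peptide, 20 uM SAM cofactor, 2 h, room temperature, following 15 min enzyme-compound preincubation.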
% is set by controls: 0 for no effect and ±100 for the full control effect; potency is the fitted concentration of half-maximal effect; tags give direction and shape of the fitted curve.

SMILES	Potency	activity, negative = inhibition
O=C(O)C1CC=CCC1C(=O)NNc1ccccc1 (configuration not stated)	active: 14.1 µM	–
Cc1ccc(-c2nnc(N3CCN(C(=O)c4ccco4)CC3)c3ccccc23)cc1	inconclusive: 89.1 µM [inhibitor, single point]	–
COc1ccc(-n2nc(C)cc2N)cc1	–	inactive: 18.6% [at 0.501 µM]
CCOCCCNC(=O)CN1C(=O)CSc2ccccc21	inconclusive: 89.1 µM [inhibitor, single point]	–
Cc1cccc(NC(=O)C2CC(=O)n3cnnc3S2)c1 (configuration not stated)	inconclusive: 0.398 µM [inhibitor, full curve, poor fit]	–
CC(C)CNC(=S)N(CCO)Cc1cc2cc3c(cc2[nH]c1=O)OCO3	inconclusive: 89.1 µM [inhibitor, partial curve, poor fit]	–
Cc1ccc(-n2ccnc(SCC(=O)NC3CCCC3)c2=O)cc1F	inconclusive: 8.91 µM [inhibitor, full curve, poor fit]	–
Cc1ccc(NC(=O)Cn2c(=O)n(Cc3nc(-c4ccccc4)no3)c(=O)c3cc4c(cc32)OCO4)cc1C	–	inactive: -5.65%
Cn1cccc1Cc1nnc(SCC(=O)N2CCCC2)n1CCc1ccccc1	inconclusive: 89.1 µM [inhibitor, single point]	–
CCOC(=O)c1c(C)[nH]c(C)c1S(=O)(=O)NCCN1CCN(c2cc(Cl)ccc2C)CC1	inconclusive: 63.1 µM [inhibitor, single point]	–
COc1ccccc1N1CCN(C(c2ccccc2)c2nnc(-c3ccccc3Cl)o2)CC1 (configuration not stated)	–	inactive: -12.3%
Cc1cccc(NC(=O)c2cc(=O)n(Cc3ccccc3)c(=O)[nH]2)c1	inconclusive: 100 µM [inhibitor, single point]	–
COc1ccc(/C=N\NC(=O)C2=NNC(=O)C2C)cc1 (configuration not stated)	–	inactive: 27.3% [at 0.0925 µM]
Cc1cccc(NC(=S)NNC(=S)NCc2ccccc2)c1	active: 0.708 µM	–
Cc1cccc(N=Nc2c(C)c(C#N)c(O)[nH]c2=O)c1	active: 50.1 µM	–
CCOc1ccc(NC(=O)C(CC)n2nc(-c3ccc(C)c(C)c3)ccc2=O)cc1 (configuration not stated)	–	inactive: -29.8%
CCOc1ccc(OCC)c(NC(=O)CN(c2ccc(C)cc2)S(=O)(=O)c2c(C)n[nH]c2C)c1	inconclusive: 31.6 µM [inhibitor, partial curve, poor fit]	–
CC(C)c1nc2cc(C(=O)NC(c3cccnc3)C(F)(F)F)ccc2o1 (configuration not stated)	–	inactive: 9.38% [at 102 µM]
Cc1cc(C)c(C(=O)NC2CC(C)(C)Cc3c2cnn3-c2cccc(F)c2)[nH]1 (configuration not stated)	inconclusive: 79.4 µM [inhibitor, single point]	–
COCC1CCCN(Cc2cn[nH]c2-c2cc3ccccc3o2)C1 (configuration not stated)	inconclusive: 15.8 µM [inhibitor, partial curve, poor fit]	–
COc1ccc(S(=O)(=O)Nc2cc(C(=O)NC3CCCCCC3)ccc2N2CCOCC2)cc1	inconclusive: 56.2 µM [inhibitor, partial curve, poor fit]	–
N/C(=N\OC(=O)c1ccc(Br)cc1)c1ccncc1	inconclusive: 50.1 µM [inhibitor, partial curve]	–
Cc1ccc(C(=O)NC(=S)Nc2ccc(N3CCN(C(=O)c4ccco4)CC3)cc2)cc1	–	inconclusive: -59.2% [inhibitor] [at 12.7 µM]

SMILES	Potency	activity, negative = inhibition
CCOc1cc(N2CCOCC2)c(OCC)cc1NC(=O)COC(=O)c1ccc(Cl)cc1N	inconclusive: 6.31 µM [inhibitor, partial curve, poor fit]	–
CC(C(=O)N1CCCC1)N(C)CC(=O)Nc1cccc(F)c1 (configuration not stated)	inconclusive: 8.91 µM [inhibitor, single point]	–
COc1ccccc1-c1c(C#N)c(SCC(=O)N2CCCC2)nc(C)c1C(N)=O	inconclusive: 31.6 µM [inhibitor, single point]	–
CC(C)c1ccc(S(=O)(=O)N2CCN(C(=O)c3ccco3)CC2)cc1	inconclusive: 35.5 µM [inhibitor, partial curve, poor fit]	–
O=C(C1COc2ccccc2O1)N(Cc1cccnc1)c1nc2ccc(F)cc2s1 (configuration not stated)	–	inactive: 4.85%
O=C(/C=C/c1ccccc1)NC(=S)Nc1ccc(CN2CCOCC2)cc1	inconclusive: 7.08 µM [inhibitor, full curve, poor fit]	–
O=C(CN1C(=O)/C(=C/c2ccco2)SC1=S)NC1CCS(=O)(=O)C1 (configuration not stated)	active: 39.8 µM	–
CC(C)(C)C(=O)NCCc1nc2ccccc2n1CC(=O)c1ccc(Cl)cc1	inconclusive: 89.1 µM [inhibitor, single point]	–
COc1ccc2nc(Cl)c(/C=N/Nc3ccccn3)cc2c1	–	inactive: 34.3% [at 102 µM]
Cc1ccc2scc(N3CCN(c4ccccc4)CC3)c(=O)c2c1	inconclusive: 28.2 µM [inhibitor, single point]	–
O=C(NC1CCCC1)C(c1ccncc1)N(Cc1cccs1)C(=O)c1csnn1 (configuration not stated)	–	inconclusive: -64.7% [inhibitor]
CC(=O)N1N=C(c2ccccc2O)OC1(C)CC(=O)Nc1ccccc1 (configuration not stated)	inconclusive: 6.31 µM [inhibitor, full curve, poor fit]	–
N/C(=N\c1nc2c(c(=O)[nH]1)CCC2)Nc1cccc(Cl)c1	inconclusive: 89.1 µM [inhibitor, partial curve, poor fit]	–
CCN(C(=O)Cn1c(SCc2ccccc2F)nc2cccnc21)c1ccccc1	–	inactive: -54.8%
CCOC(=O)c1sc(N2C(=O)c3oc4ccc(F)cc4c(=O)c3C2c2cccc(OC)c2)nc1C (configuration not stated)	inconclusive: 28.2 µM [inhibitor, single point]	–
Cc1ccc(C)c(CSc2ncccc2C(=O)O)c1	active: 50.1 µM	–
CC(C)C(=O)O/N=C1\CCS(=O)(=O)c2sccc21	inconclusive: 39.8 µM [inhibitor, single point]	–
O=C(Nc1cccc(S(=O)(=O)N2CCCC2)c1)c1cccc(OC(F)F)c1	–	inactive: -35.7% [at 102 µM]
Cc1ccc(C)c(N2CCN(CCCNC(=O)Cn3c(-c4cccs4)cc4ccccc43)CC2)c1	inconclusive: 28.2 µM [inhibitor, single point]	–
CC(C)(C)NC(=S)N/N=C\c1ccc(-c2ccc([N+](=O)[O-])cc2)o1	–	inactive: -11.4%
Cc1ccc(Cl)cc1N1CCN(C(=O)C2CCC(=O)N(C3CCCCCC3)C2)CC1 (configuration not stated)	inconclusive: 89.1 µM [inhibitor, single point]	–
Cc1cccc(NC(=O)CN2C(=O)NC(Cc3ccccc3)C2=O)c1 (configuration not stated)	inconclusive: 79.4 µM [inhibitor, single point]	–
CCc1cc(C(=O)N(CC)CC(=O)Nc2ccc(OC)cc2)sc1C	inconclusive: 6.31 µM [inhibitor, single point]	–

SMILES	Potency	activity, negative = inhibition
CN(C)C1C(=O)C(C(N)=O)=C(O)[C@@]2(O)C(=O)C3=C(O)c4c(O)ccc(Cl)c4[C@@H](O)C3C[C@@H]12 (some centres not stated)	active: 35.5 µM	–
O=C1c2ccccc2C(=O)c2[nH]c(=O)[nH]c21	inconclusive: 89.1 µM [inhibitor, single point]	–
CC#CC#Cc1cccc(=O)o1	inconclusive: 79.4 µM [inhibitor, single point]	–
c1ccc2c(c1)CC1(CCCCC1)n1nnnc1-2	–	inactive: -7.06%
COc1cc2[nH]c(=O)n(CCCC(=O)NCc3ccccc3Cl)c(=O)c2cc1OC	inconclusive: 1 µM [inhibitor, full curve, poor fit]	–
CCCC(=O)N(c1ccccc1)C1C=CS(=O)(=O)C1 (configuration not stated)	inconclusive: 89.1 µM [inhibitor, single point]	–
O=C(CSc1nc2c(c(=O)[nH]1)CCCC2)Nc1cccc(O)c1	inconclusive: 39.8 µM [inhibitor, single point]	–
CCC(=Nc1ccccc1OC)C1=C(O)CC(c2ccccc2)CC1=O (configuration not stated)	inconclusive: 50.1 µM [inhibitor, partial curve]	–
O=C(O)/C(=C/c1ccco1)NC(=O)c1ccc(Br)o1	active: 44.7 µM	–
CCc1ccc[n+](-c2[nH]c(=O)sc2/C=N/NC([S-])=Nc2ccccc2)c1	active: 22.4 µM	–
COc1ccc(NC(=O)/C(C#N)=C/c2c(C)nn(-c3ccc(F)cc3)c2Cl)cc1OC	inconclusive: 2.51 µM [inhibitor, partial curve, poor fit]	–
COc1ccc(-c2cc(C(F)(F)F)nc(S(=O)(=O)CCCC(=O)Nc3ccccc3C(F)(F)F)n2)cc1OC	–	inactive: -23.1%
CC1(C)CC(=O)c2sc(NS(=O)(=O)c3ccc(F)cc3)nc2C1	active: 79.4 µM	–
c1ccc(CCNc2ccccc2)cc1	inconclusive: 28.2 µM [inhibitor, partial curve]	–
CCOC(=O)Cc1csc(NC(=O)Cc2ccccc2)n1	inconclusive: 50.1 µM [inhibitor, partial curve]	–
O=C(O)c1cc2ccc3ccccc3c2[nH]1	inconclusive: 50.1 µM [inhibitor, partial curve, poor fit]	–
COC(=O)c1ccccc1NC(=O)CSc1nc2sc3c(c2c(=O)[nH]1)CCCC3	inconclusive: 1.12 µM [inhibitor, full curve, poor fit]	–
COc1cccc(-n2c(COc3ccc(C)cc3)nnc2SCC(N)=O)c1	inconclusive: 89.1 µM [inhibitor, partial curve, poor fit]	–
O=C(O)c1ccccc1N(Cc1ccccc1)C(=O)CO/N=C/c1ccccc1	inconclusive: 15.8 µM [inhibitor, single point]	–
Clc1ccc(-c2ccc(SCc3ccccn3)nn2)cc1	–	inactive: -1.28% [at 102 µM]
c1cc(Nc2ncnc3sccc23)cc(-c2nnc3n2CCCCC3)c1	inconclusive: 100 µM [inhibitor, single point]	–
